# Measurements reported in the supplement of paper PMC11417369.
# ± gives the standard deviation of the averaged measurements. The list shows a part of the results.
# Test system: PfAP2-G AP2 domain (GST-tagged)
# Assay: gcPBM binding intensity (ln(normalized median fluorescence intensity)); higher = stronger DNA binding
# Method in brief: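 Binding of GST-tagged P. falciparum DNA-binding domains, expressed in E. coli and used at about 25 μg on average, was carried out for 1 h in 1× PBS containing 1% milk, 0.2 mg/ml BSA, 0.5% salmon testes DNA and 0.03% Triton X-100. The target was an Agilent 4 × 180k array of primer-extended double-stranded 36-bp intergenic genomic probes plus negative controls, read with Alexa488 anti-GST antibody at 488 nm. Binding intensity is the highest Masliner-normalised natural-log median intensity across replicate spots of either probe orientation.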
row,Sequence,gcPBM binding intensity (ln)
1,GTATTTATGTGTTTGGTGCAAGGGAGAATTTTTTTT,10.3 ± 0.33
2,TTTATTATGTAAGCATGTACATGATGTATATATTTA [XGTACX_site5021],10.9 ± 0.54
3,ATATATATATATATATGTACATATATTTGTAATGTC [XGTACX_site8074],11.3 ± 0.51
4,TTGTTTGTAAACAGATGTACATATAAAAATATATAT [XGTACX_site3370],11.3 ± 0.91
5,TATATTAGAAAGGATACACACATATATAAATATCTA [CACACA_site6411],9.935 ± 0.007
6,ATCTGTACAGTTTTTGCACACATATAAATAAAAAAA [CACACA_site9198],11.3 ± 1
7,TATTTACAAATAAAAAGTACATAAACTAATATCTTT [XGTACX_site2181],11.3 ± 0.89
8,ATATAAATAAATGTATGTACATATATTTATATGCAT [XGTACX_site4185],11.1 ± 0.62
9,TAAATACTTATATGTACACACATATAGATATATATT [CACACA_site2553],11.4 ± 1
10,CACAGACACGGACACACACACACACCGATATATATA [CACACA_site4353],11.3 ± 0.79
11,ATTTTTTAAAATATTTGTACATATATAATGCATATA [XGTACX_site7026],11 ± 0.64
12,TTATCAAATGAGTGTTGTACGTCTTTTGAAATACCA [XGTACX_site8804],11.5 ± 1.1
13,TTCCCTATATAGAGCATGCACTATATTCAAATGATG,9.96 ± 0.014
14,TTAGATATAAAAGCATGTACTTGTATAAAATATATA [XGTACX_site8272],11.1 ± 0.8
15,ATAAATATTAGCAGTTGTACAATAAATATATGTAAT [XGTACX_site2534],11.2 ± 0.64
16,GAAAAATTGAATTTGGGTACATATAAATATTATATT [XGTACX_site2363],11.3 ± 0.76
17,AAAATGTTTTTATCCAGTACATAAATATATATATAT [XGTACX_site7398],10.7 ± 0.35
18,TATGAACACCCAAATACACACACTCAAAAAAAAAAA [CACACA_site5466],10.2 ± 0.48
19,TAATTTTTCTTATATAGTACACAAAAAGAAAATTAC [XGTACX_site6393],11.3 ± 0.83
20,TCAGATCCATAGAAGGTGCAAATAACAAAAATACAA [GTGCAC_site9610],10.2 ± 0.35
21,AAGTAATTTATGCATACACACATATATAAATATGTA [CACACA_site7813],10 ± 0.13
22,ATATATATAAAACACACACACACATGTTTTAAAACT [CACACA_site78],10.12 ± 0.078
23,AAAAACTATTGTAGGACACACAAAATTCCAATTTTA [CACACA_site1701],11.2 ± 0.82

row,Sequence,gcPBM binding intensity (ln)
1,ATATATATTAGGTATTGTACTTATATGCATATAAGT [XGTACX_site2700],11.3 ± 0.77
2,AATGAATGAATTATTTTGCGCTTATTATAGGACGAA [XGTACX_negctrl_site218],10.1 ± 0.18
3,TCTTTTATGTTTGTTTTTCCCTTTTTTTATGTTCCC [CACACA_negctrl_site1722],9.81
4,AAATAAATGTTATGCATACACACTTTATACCTATTT [CACACA_site3779],10.07 ± 0.057
5,CACAAAAAGAAACACACACACATATATATTTATTAT [CACACA_site3646],9.93 ± 0.099
6,TATATATATATTTATACACACATTAGTGTATACATG [CACACA_site2950],10.3 ± 0.22
7,GACTATTTTAATATTTTACACACCATGTAAAATATA [CACACA_site9050],10.05 ± 0.064
8,ACATAATAAAAAAAACGTACAAATAGGTTTTTCATA [XGTACX_site6645],11.5 ± 0.95
9,TGGGAATAAAAACACACACACACACCGATATATATA [CACACA_site5875],9.91 ± 0.16
10,TATAATAAAAAATGTACACACATAAGAAAATTTAAT [CACACA_site2901],11.3 ± 0.71
11,TTTTTTTATTATTAAAGTACTAAAAAATGAAAACTG [XGTACX_site6758],11.1 ± 0.86
12,AGGTTAAAACATATATATATATATATATATATATAT [XGTACX_negctrl_site333],9.68 ± 0.35
13,TTATACAGGACAATAGTGCACATAAATATATGTATA,10.5 ± 0.33
14,GCAGTCAAAAAGGAAAATATAAAAAAAGTATATGTG [GTGCAC_negctrl_site95],10.1 ± 0.14
15,ATATATTAAAACCTAGTGCATTTGTACATATTTCAA,11 ± 0.52
16,TATATATATATATACACACACACCGTCCGTGTTAAA [CACACA_site2979],10.5 ± 0.54
17,TGAAATAAAATTTATACACACTTGCTAAATGATCAT [CACACA_site4265],9.905 ± 0.078
18,TTTTTTGTTATTAAAAGTACATTATATGCTAGTTAA [XGTACX_site8747],11.2 ± 0.73
19,TTAAAAATATTATGTACACACATTTGAGATATTTGT [CACACA_site6953],11.5 ± 0.96
20,TTCGTAATTTATATCACACACATATATCTATAATAA [CACACA_site7458],9.825 ± 0.092
21,TATCATTAATTTACATGTACATAAATGAATGTTTAT [XGTACX_site5608],11.1 ± 0.54
22,AATATATAAATATTGTGTACTTATTTTTTTATATGT [XGTACX_site4377],11.5 ± 0.85
23,ATAAATTCTATGTATACACACATATAAAATATAGAT [CACACA_site7296],10.2 ± 0.37

row,Sequence,gcPBM binding intensity (ln)
1,AAAGGCTATCTTATATACTCCTAAAACGCGAACGTA [CACACA_negctrl_site396],10.1 ± 0.23
2,ATTATATACATATATGCACACAAAAAAATATATATT [CACACA_site8508],10.2 ± 0.21
3,TTCCTATAAAAAAACACACACATATAAATATATATA [CACACA_site2318],9.8 ± 0.26
4,ATATGTATGAAGTGTACACATATATTGTATTTTCTT [CACACA_site5503],11.7 ± 0.91
5,GTAAGCACACATAGTTGTACATTAATAAAAATAAAT [XGTACX_site5876],11.3 ± 0.82
6,AACAATTTATATAAAGCACACATGGGAAGGAAATAC [CACACA_site1712],10.4 ± 0.24
7,TACAATTTAATATATACACACAAATAAATTATGCTT [CACACA_site856],9.62 ± 0.17
8,TATTAATACAGACACACACACACACCCAATAAAATA [CACACA_site243],10.3 ± 0.39
9,ATAAATTCATATATGAGTACTAAAAATATCTTTTTC [XGTACX_site5541],10.9 ± 0.49
10,ATATATGACAAATGTAGTACAAATTATTGTATCATA [XGTACX_site3675],11.4 ± 0.76
11,TTATTGCATATTTACACACGTACTAATTTAAACAAG [CACACA_site971],11.1 ± 0.65
12,AGAATATTTAAAAAAGGTACACAAAAACCAAAATAA [XGTACX_site8569],11.4 ± 0.75
13,AAAAAAAACGAACACACACACATTCAATATAAAACA [CACACA_site6170],10.2 ± 0.25
14,CAATGGTCATTTAGTTGTACTTAATTTTAAATCAAA [XGTACX_site4075],11.6 ± 1
15,GATATTATGTGTTTGGTATTTTTTGATGTTGGTAGG [XGTACX_negctrl_site563],10.2 ± 0.18
16,TAGAACAAATAAAACACACACATATAAATATAGATG [CACACA_site7325],9.94 ± 0.028
17,ATATCTATGTTTATCTCGAATAACTTAAAAAATTAT [CACACA_negctrl_site1131],9.845 ± 0.021
18,GTGCAAAATATTTTTACACACAAATTCTTACAACAG [CACACA_site7556],10.1 ± 0.028
19,TTATCACACCTTTTTTGTACGAAATAAAAAAAAAAA [XGTACX_site5564],10.8 ± 0.71
20,TAATATGCTCATGTAACACACATTTGCATATTTTTC [CACACA_site1357],9.79 ± 0.057
21,TCTTTCTAAAGATGTAGTACAAAATAAATATAATAT [XGTACX_site6564],11.5 ± 0.81
22,TTTATACAAACAACTTTATATTAATGTTTAACGGAG [GTGCAC_negctrl_site396],9.76
23,AAGGCAAACAAACACACACACATATATACATATATA [CACACA_site2122],10 ± 0.17

row,Sequence,gcPBM binding intensity (ln)
1,TATATACACATATATAAACACACAAAAAAAAAAAAA [CACACA_site8626],9.89 ± 0.48
2,ATACAAATTGTTTAAAGTACAAATTACACCTCTTAA [XGTACX_site6888],10.8 ± 0.46
3,TTTTTTTTTTTTTAAACATGCATATTAATATTATAT [TGCATGCA_site820],9.52 ± 0.19
4,TAAAAAGGAAGACACACACACACATATATAAATATA [CACACA_site7657],10.1 ± 0.2
5,GTATATCACACATTTGCATGTTGTCAATAGTTTATC [TGCATGCA_site134],10.23 ± 0.014
6,CATACAGACATACATACACACATACATACAGACATA [CACACA_site6996],10.09 ± 0.099
7,TGTAAATATATATATACACACACACCGAAGCAATAG [CACACA_site8960],10.3 ± 0.26
8,AATTTTATTCATTGAGCACACAAAATAAATTATCAA [CACACA_site9079],10.3 ± 0.36
9,ATCTTTTATATAAAATGTACAGAGTTTGAAAGAATA [XGTACX_site8826],10.8 ± 0.5
10,ACATTAAAAAAAAAATGTACATAAATATTTTTCCTT [XGTACX_site4361],11.1 ± 0.59
11,GTATTACAACGACACACACACCTATATATCATAGTA [CACACA_site7877],10.07 ± 0.028
12,TAATAAAATAAAAATTGTACATTTTATATTTATCAA [XGTACX_site5134],10.9 ± 0.61
13,TATGTGTATTTATTTGCATGTTGGTTGTATTTTTTC [TGCATGCA_site479],10.17 ± 0.042
14,TCTTCATATGTTTACTGTACGAGAAAAAAAAAAAAA [XGTACX_site6418],11.1 ± 0.9
15,ATAAATAATTATATATGTACACATTATGAATGGATA [XGTACX_site8336],11.4 ± 0.83
16,AGATTATTTGGACATGCATGTAAAAAAATACGTATA [TGCATGCA_site972],10.5 ± 0.4
17,AATGAAAAAAAAAAAAAAAAGAAGAAGCAAATGGTA [TGCATGCA_negctrl_site335],9.35 ± 0.31
18,TATTCTATACTATATTGTACTATAATATAATATACT [XGTACX_site797],10.9 ± 0.57
19,AAATAATTTATAAATAAATACATTGTTACTTTTTCT [GTGCAC_negctrl_site639],9.62 ± 0.29
20,ATTTCCCACTTGTGTGTGCGCATGTGTATATATTTA [GTGCAC_site9949],10.4 ± 0.27
